The record followed here is PubChem BioAssay AID1347073 (National Center for Advancing Translational Sciences (NCATS), 2019).

The whole screen tested about 45,000 compounds, of which about 200 (0.44%) were called active. Not shown: some 7% with an inconclusive outcome. The call rests on the fitted dose curve; in most records, active means well fitted activation curve with a large enough effect; inconclusive means small, poorly fitted or top-dose-only effect; inactive means no such curve, though single readings can be large or run the other way. Some of the results follow.
Potency means the concentration at half of the fitted maximal effect.

This assay in a line: qHTS of TDP-43 Inhibitors: NCGC Sytravon Library Screen. Further: nearly all actives have a fitted effect of over 55% in size. On growth rescue (activation): 0% is about no effect. The note with it: yeast TDP-43 toxicity rescue, BacTiter-Glo growth, 24 h; series mostly up to 46.1 µM; growth rescue (activation): at the top concentration. Summed up:
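TDP-43-expressing yeast, pregrown in raffinose, seeded at OD600 0.02 in galactose medium with compound for 24 hr at 30 deg C. Growth read by BacTiter-Glo luminescence, so rescue of toxicity appears as activation.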
With `Cn1c(CCCOc2ccc(Cl)cc2Cl)nnc1SCC(=O)Nc1ccc(F)c(Cl)c1`, the “growth rescue (activation)” value was inactive: 11.3%. Take `O=C(c1nc2ccccn2c1CN1CCCC(OCc2ccccc2)C1)N1CCCC1` (stereo not drawn): the “growth rescue (activation)” value is inactive: 12.8%.

Turning to `CN(C)c1ncnc2c1ncn2[C@H]1CN(Cc2ccc(-c3ccccc3)cc2)C[C@@H](CO)O1`, the “growth rescue (activation)” value is inactive: 12.5%.

As to `CCCCCCC(C)n1[nH]c(=O)c2c(C)cc(C)nc21` (stereo not drawn), the “growth rescue (activation)” value was inactive: 30%. Take `Cn1c(CC(=O)Nc2ccccc2Cl)nnc1SCC(=O)NC1CCCCC1`: the “growth rescue (activation)” value was inactive: 4.83%.

With `O=C(O)COC(=O)C1C(c2ccccc2)C(C(=O)O)C1c1ccccc1` (stereo not drawn), the “growth rescue (activation)” value is inactive: -25%.

On to `COc1ccc(S(=O)(=O)N2CCC(C(=O)N3CCN(C)CC3)CC2)cc1OC`, for which the “growth rescue (activation)” value was inactive: 4.55%. Regarding `CNC(=O)/C(C#N)=C/c1cccc(Oc2ccccc2)c1`, the “growth rescue (activation)” value is inactive: -91.1%. The same measure, in the same setting: the result for `CC(C(=O)NN)c1ccc([N+](=O)[O-])cc1` (stereo not drawn) reads inactive: 4.36%; that for `COc1ccc(CNC(=O)C2(C)Cc3c(-c4ccccc4)ccnc3O2)cc1OC` (stereo not drawn), inactive: 0.827%; that for `COc1cccc2cc(C(C)N(CCCN3CCOCC3)C(=S)Nc3c(C)cccc3C)oc12` (stereo not drawn), inactive: 1.11%. As for `C=C(C)COc1ccc(-c2ncncc2-c2ccccc2OC)c(O)c1`, the “growth rescue (activation)” value is inactive: 34.7%.

Regarding `Cc1cc(=O)[nH]c(Nc2cccc(C(F)(F)F)c2)n1`, the “growth rescue (activation)” value was inactive: -5.79%. The same measure, in the same setting: the result for `COCCNc1nnc(SCC(=O)c2c[nH]c3ccccc23)s1` reads inactive: -20.1%; that for `CCc1nnc(SCC(=O)Nc2nnc(C)s2)n1CC1CCCO1` (stereo not drawn), inactive: 5.32%; that for `CCOC(=O)C1CCN(CCCSc2ccc(C)cc2)CC1`, inactive: 5.54%. On the same count and under the same terms, next, `Cn1nc(-c2ccc3c(c2)OCCO3)c2ccccc2c1=O`: inactive: 4.45%; `O=C(O)c1ccc(N2CC3CC(C2)c2cccc(=O)n2C3)c(NC(=S)Nc2ccc(Br)cc2)c1` (stereo not drawn): inactive: 20.1%.

On to `COc1cc(CN(C)Cc2nc3cc(C(F)(F)F)ccc3c(=O)[nH]2)ccc1OC(F)F`, for which the “growth rescue (activation)” value is inactive: -2.72%. With `CC(C)(C)C(=O)N1CCN(C(=O)c2ccco2)CC1`, the “growth rescue (activation)” value is inactive: -12.2%. Regarding `O=S(=O)(c1ccccc1)N1CC=C(c2ccccc2)CC1`, the “growth rescue (activation)” value was inactive: 16.5%. The same measure, in the same setting: the result for `O=C(N/N=C/c1cn(-c2ccccc2)nc1-c1cccnc1)c1ccccc1` reads inactive: -5.05%.

For `Cc1ccc(-n2ncc3c2CCCC3NC(=O)CCc2c(C)noc2C)cc1C` (stereo not drawn), the “growth rescue (activation)” value is inactive: 16.8%. On the same count and under the same terms, the result for `CC(C)CC[n+]1ccccc1/C=C/c1ccc(N(C)C)cc1` reads inactive: -3.33%; that for `O=C(c1ccc(O)cc1)c1ccc(O)cc1O`, inactive: -4.65%; that for `Cc1c(Cl)cccc1NC(=O)c1noc2c1CCCC2`, inactive: 26.6%. With `COCCCN1CN(Cc2ccco2)CNC1=S`, the “growth rescue (activation)” value is inactive: -9.37%.

In the case of `COc1ccc(F)cc1S(=O)(=O)NCCCn1ccnc1`, the “growth rescue (activation)” value was inactive: 2.38%.

As to `COc1ccc(/C=C/C(=O)OCC(=O)NC2CCCCC2C)c(OC)c1` (stereo not drawn), the “growth rescue (activation)” value is inactive: 26.9%. For the compound `CC(=O)Nc1ccc(NC(=O)CCc2nc3ccccc3c(=O)[nH]2)cc1`, the “growth rescue (activation)” value was inactive: 0.518%.

With `Cc1ccc(S(=O)(=O)Nc2ccccc2C(=O)N2CCCC2)cc1`, the “growth rescue (activation)” value was inactive: 14.3%. On to `COc1ccc(C(=O)N2CCC(C(=O)Nc3ccccc3C)CC2)cc1OC`, for which the “growth rescue (activation)” value is inactive: -0.102%.

With `COc1ccc(C(=O)N[C@H](C(=O)NCc2ccc(C)cc2)C(C)C)cc1`, the “growth rescue (activation)” value was inactive: 17.4%. On the same count and under the same terms, next, `N#CCCN(C(=O)COC(=O)/C=C/c1cccs1)c1ccccc1`: inactive: 10.3%. On to `CCc1ccc(N(CC(=O)NC(C)C)C(=O)CCC(=O)Nc2nccs2)cc1`, for which the “growth rescue (activation)” value was inactive: -1.14%. Still for that read-out and setting: next, `Cc1ccc(NC(=S)NCCc2ccc(S(N)(=O)=O)cc2)cc1C`: inactive: 28.8%; `O=C(Nc1cccnc1)C1CCC(CNS(=O)(=O)c2cccc3nsnc23)CC1` (stereo not drawn): inactive: 17.7%.

Take `CC(C)NC(=O)CN1CCN(C(=O)c2ccc3oc(CCCc4ccccc4)nc3c2)CC1`: the “growth rescue (activation)” value was inactive: 10.5%. As for `CCC(C(=O)N1CCN(c2ccccc2OC)CC1)c1ccccc1` (stereo not drawn), the “growth rescue (activation)” value is inactive: 14.5%.

For the compound `CNS(=O)(=O)c1cccc(C(=O)NNC(=O)c2ccc(COc3ccccc3)cc2)c1`, the “growth rescue (activation)” value was inactive: 10.3%. Still for that read-out and setting: next, `CN(CC(=O)Nc1ccc(F)cc1)C(=O)CN1C(=O)NC2(CCCC2)C1=O`: inactive: -26.2%; `COc1ccc(C2(C)NC(=O)N(CC(=O)N(c3ccccc3)C3CCS(=O)(=O)C3)C2=O)cc1` (stereo not drawn): inactive: 0.945%; `O=C(CSc1cccc[n+]1[O-])Nc1cc2c(cc1Cl)C(=O)c1ccccc1C2=O`: inactive: 19.7%.

Regarding `CCCc1cc(=O)[nH]c(SCC(=O)Nc2c(C)n(C)n(-c3ccccc3)c2=O)n1`, the “growth rescue (activation)” value is inactive: -0.324%. On the same count and under the same terms, the result for `O=C(NC1CC1)C1CCN(C(=O)c2ccc(Cl)cc2)CC1` reads inactive: 11.7%; that for `O=C(CNC(=O)c1ccco1)NCC(=O)OCc1ccccc1Cl`, inactive: 18.3%.

Take `O=C(Nc1ccc(Cl)cn1)c1ccc(COc2ccccc2Br)o1`: the Potency was active: 11.2 µM. On to `Cc1cc(NC2CCCC2)n2nc(C)c(-c3ccccc3)c2n1`, for which the “growth rescue (activation)” value is inactive: 6.75%.

`Nc1c(NCCN2CCOCC2)c2ccccc2oc1=O`: the “growth rescue (activation)” value was inactive: 3.19%. As for `O=C(CNc1cccc2ccccc12)N/N=C/c1ccc[nH]1`, the “growth rescue (activation)” value is inactive: 8.68%. Regarding `CCS(=O)(=O)c1ncc(Cl)c(C(=O)Nc2ccc(S(=O)(=O)N3CCCC(C)C3)cc2)n1` (stereo not drawn), the “growth rescue (activation)” value is inactive: 3.6%. `O=C(COC(=O)[C@H](Cc1ccccc1)NC(=O)c1cccs1)NC1CC1`: the “growth rescue (activation)” value is inactive: -0.92%. Same read-out and setting: the result for `Cc1ccc(-c2c(C)n([O-])c3c([n+]2=O)CCCCC3)cc1` reads inactive: 17.5%.
